# Several values for one entry are separate records, joined by “and”; a condition that tells them apart may be missing. Equal entries are not always repeated. Inconclusive results, whose numbers are uncertain, are shown with a selection of clear calls. For part of these data: Potencies beside an inconclusive call are fits to weak or partial responses and may not hold up. Activity calls are given as the source filed them. Unless noted, the call rests on the fitted dose curve; in most records, active means well fitted curve in the direction sought with a large enough effect in the repeat runs; inconclusive means weak or mixed curves; inactive means no such curve, though single readings can be large; an effect the other way counts as inactive or inconclusive.
# How the values were obtained:
# [1] = qHTS assay to identify small molecule antagonists of the estrogen related receptor (ERR) signaling pathway - cell viability counter screen (AID 1224818); further: potency means the concentration at half of the fitted maximal effect
# Summary of the method: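 Viability of ERR cells, CellTiter-Fluor fluorescence; 17.5 h compound exposure at 37 C, DMSO vehicle; 30 min reagent incubation at 37 C/5% CO2.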
# [2] = qHTS assay to identify small molecule antagonists of the estrogen related receptor (ERR) signaling pathway (AID 1224819; further: nearly all actives have a fitted effect of over 50% in size; further: potency means the concentration at half of the fitted maximal effect)
# Summary of the method: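 Seed ERR cells 2,000/well; rest 6 h at 37 C/5% CO2; pin compounds in DMSO; incubate 18 h at 37 C; add One-Glo; wait 30 min at room temperature; measure luminescence.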
# [3] = qHTS assay to identify small molecule agonists of the constitutive androstane receptor (CAR) signaling pathway - cell viability counter screen (AID 1224836); further: nearly all actives have a fitted effect of over 45% in size; further: potency means the concentration at half of the fitted maximal effect
# Summary of the method: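 HepG2-CYP2B6-hCAR, 2500 cells/well, 4 h pre-incubation; cpd 15 conc + PK11195 0.75 uM final; 23 h, 37 C/5% CO2; CellTiter-Fluor, fluorescence.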
# [4] = qHTS assay to identify small molecule antagonists of the constitutive androstane receptor (CAR) signaling pathway - cell viability counter screen (AID 1224837); further: nearly all actives have a fitted effect of over 45% in size; further: potency means the concentration at half of the fitted maximal effect
# Summary of the method: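 CITCO at 50 nM final was added alongside compounds (15 concentrations) to double-stable hCAR/CYP2B6-2.2kb HepG2 cells. Following 23 hr at 37 C, cell viability was quantified by CellTiter-Fluor fluorescence intensity.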
# [5] = qHTS assay to identify small molecule antagonists of the estrogen related receptor (ERR) signaling pathway from Tox21 library - cell viability counter screen (AID 1224834); further: nearly all actives have a fitted effect of over 30% in size; further: potency means the concentration at half of the fitted maximal effect
# Summary of the method: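 Counter screen run in ERR cells (2,000 cells/well): cells pre-incubated 6 h, then treated with compounds for 17.5 h at 37 C. Fluorescence was read 30 min after CellTiter-Fluor addition.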
# [6] = test system: estrogen-related receptor alpha (ERRalpha) with PGC-1alpha coactivator, human; assay: qHTS assay to identify small molecule antagonists of the estrogen related receptor signaling pathway with the pleiotropic PPARgamma coactivator (PGC) (AID 1224821; calls by dose curve; further: nearly all actives have a fitted effect of over 50% in size; further: potency means the concentration at half of the fitted maximal effect)
# Summary of the method: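 PGC/ERR reporter cells; 6 h pre-incubation 37 C/5% CO2; pin-tool compound in DMSO, 18 h 37 C; One-Glo added, 30 min RT; luminescence read. qHTS antagonist mode.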
# [7] = qHTS assay to identify small molecule antagonists of the estrogen related receptor signaling pathway with the pleiotropic PPARgamma coactivator (PGC) cell viability counter screen (AID 1224822; further: series mostly up to about 46 µM)
# Summary of the method: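 17.5 h compound treatment of PGC/ERR cells at 37 C; readout CellTiter-Fluor fluorescence; run alongside the PGC/ERR antagonist screen to flag cytotoxic compounds.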
# Tags describe the fitted curve by direction and shape.
smiles,measurement,setting,value
CO/C=C(/C(=O)OC)c1ccccc1Oc1cc(Oc2ccccc2C#N)ncn1,Potency,[1],inconclusive: 28.4 µM [cytotoxic]
same,Potency,[2],active: 4.86 µM
same,Potency,[3],inconclusive: 15.4 µM [cytotoxic]
same,Potency,[4],"inconclusive: 17.2 µM [cytotoxic, full curve]"
Oc1ccc(C(=C(Cl)Cl)c2ccc(O)cc2)cc1,Potency,[5],"inconclusive: 61 µM [cytotoxic, partial curve]"
C1CN2CCN1CC2,Potency,[5],inactive
O=S(=O)(c1ccc(Cl)cc1)c1ccc(Cl)cc1,Potency,[2],inconclusive: 17.2 µM [inhibitor]
same,Potency,[6],inconclusive: 57.7 µM [inhibitor]
same,Potency,[5],inconclusive: 61.9 µM [cytotoxic]
CC(O)(CS(=O)(=O)c1ccc(F)cc1)C(=O)Nc1ccc(C#N)c(C(F)(F)F)c1 (configuration not stated),Potency,[2],inconclusive: 22.8 µM [inhibitor]
same,Potency,[6],inconclusive: 19.9 µM [inhibitor]
COc1ccc2c3c1O[C@H]1[C@H](O)CC[C@H]4[C@@H](C2)N(C)CC[C@@]341,Potency,[5],inactive
c1cc2ccc3cccc4ccc(c1)c2c34,Potency,[2],inconclusive: 46.7 µM [inhibitor]
same,Potency,[6],inactive
same,Potency,[7],inactive
same,Potency,[5],inconclusive: 71.9 µM
COc1ccc(Cc2nccc3cc(OC)c(OC)cc23)cc1OC,Potency,[7],inactive
same,Potency,[4],inactive
CC[C@@H](CO)NC(=O)[C@@H]1C=C2c3cccc4c3c(cn4C)C[C@H]2N(C)C1,Potency,[2],inactive
CCCCC(C#N)(Cn1cncn1)c1ccc(Cl)cc1 (configuration not stated),Potency,[5],"inconclusive: 68.3 µM [cytotoxic, single point]"
COP(=O)(OC)Oc1ccc([N+](=O)[O-])cc1,Potency,[5],"inconclusive: 27.3 µM [cytotoxic, full curve]"
same,Potency,[3],"inconclusive: 48.6 µM [cytotoxic, partial curve, poor fit]"
same,Potency,[4],"inconclusive: 61.1 µM [cytotoxic, partial curve, poor fit]"
O=C1C(=O)c2cccc3cccc1c23,Potency,[5],"inconclusive: 43.2 µM [cytotoxic, partial curve]"
same,Potency,[3],inactive
O=[N+]([O-])C(Br)Br,Potency,[5],inactive
same,Potency,[3],inactive
CC(C)(O)C(=O)Nc1ccc([N+](=O)[O-])c(C(F)(F)F)c1,Potency,[5],inconclusive: 70 µM [cytotoxic]
same,Potency,[4],"inconclusive: 70 µM [cytotoxic, partial curve, poor fit]"
O=[N+]([O-])c1c2ccccc2cc2ccccc12,Potency,[5],"inconclusive: 38.1 µM [cytotoxic, partial curve, poor fit]"
same,Potency,[3],"inconclusive: 67.8 µM [cytotoxic, partial curve]"
same,Potency,[4],"inconclusive: 53.8 µM [cytotoxic, partial curve]"
OC(c1ccc(Cl)cc1)(c1cncnc1)c1ccccc1Cl (configuration not stated),Potency,[5],active: 27.8 µM and active: 43.3 µM
same,Potency,[3],"inconclusive: 69.8 µM [cytotoxic, single point]"
same,Potency,[4],"active: 55.4 µM and inconclusive: 77 µM [cytotoxic, partial curve, poor fit]"
CC1(c2ccc(Oc3ccccc3)cc2)OC(=O)N(Nc2ccccc2)C1=O (configuration not stated),Potency,[5],active: 27.5 µM
same,Potency,[3],"inconclusive: 27.5 µM [cytotoxic, partial curve]"
same,Potency,[4],"inconclusive: 61.5 µM [cytotoxic, partial curve]"
CS/C(C)=N/OC(=O)N(C)SN(C)C(=O)O/N=C(\C)SC,Potency,[5],"inconclusive: 68.6 µM [cytotoxic, single point]"
same,Potency,[3],"inconclusive: 77 µM [cytotoxic, single point]"
same,Potency,[4],"inconclusive: 68.6 µM [cytotoxic, single point]"
CC(CC(C#N)(c1ccccc1)c1ccccc1)N(C)C (configuration not stated),Potency,[5],"inconclusive: 68.2 µM [cytotoxic, single point]"
same,Potency,[3],"inconclusive: 68.2 µM [cytotoxic, partial curve, poor fit]"
CO/C=C(/C(=O)OC)c1ccccc1COc1cccc(C(F)(F)F)n1,Potency,[5],"inconclusive: 54.4 µM [cytotoxic, partial curve]"
same,Potency,[3],"inconclusive: 5.44 µM [cytotoxic, full curve]"
same,Potency,[4],"inconclusive: 5.44 µM [cytotoxic, full curve]"
CC(=O)OC1(c2ccccc2)CCN(CCc2ccccc2)CC1,Potency,[5],inconclusive: 78.8 µM [cytotoxic]
same,Potency,[3],"inconclusive: 62.6 µM [cytotoxic, partial curve, poor fit]"
same,Potency,[4],"inconclusive: 28 µM [cytotoxic, partial curve]"
CC(C)(C)N(NC(=O)c1ccc(Cl)cc1)C(=O)c1ccccc1,Potency,[5],active: 12.1 µM
same,Potency,[3],"inconclusive: 6.82 µM [cytotoxic, full curve]"
same,Potency,[4],active: 8.58 µM
CCC[N+]1(C)CCCC1,Potency,[5],inactive
same,Potency,[3],inactive
CCCCC(O)(Cn1cncn1)c1ccc(Cl)cc1Cl (configuration not stated),Potency,[5],active: 54.4 µM
same,Potency,[3],"inconclusive: 68.5 µM [cytotoxic, single point]"
same,Potency,[4],active: 61.1 µM
